{"source": "paper PMC4336329", "about": "(PLoS ONE, 2015)", "note": "Screen size: about 310,000 compounds; about 14,000 (4.5%) showed an effect of 50% or more. Effects have a minus sign here. This is one part of the list. Where a SMILES comes first, the peptide text is derived from it. [ ]: non-standard residue; d: D form. The star is where a group is joined. ξ: configuration not given here. ξY = NC(Cc1ccc(O)cc1)C(=O)O; Cbz = O=C(OCc1ccccc1)*; OtBu = CC(C)(C)O*; tBu = CC(C)(C)*"}
{"molecular_target": "human ether-à-go-go-related gene (hERG) potassium channel (human, UniProt Q12809)", "sequence (Q12809 whole entry, looked up)": "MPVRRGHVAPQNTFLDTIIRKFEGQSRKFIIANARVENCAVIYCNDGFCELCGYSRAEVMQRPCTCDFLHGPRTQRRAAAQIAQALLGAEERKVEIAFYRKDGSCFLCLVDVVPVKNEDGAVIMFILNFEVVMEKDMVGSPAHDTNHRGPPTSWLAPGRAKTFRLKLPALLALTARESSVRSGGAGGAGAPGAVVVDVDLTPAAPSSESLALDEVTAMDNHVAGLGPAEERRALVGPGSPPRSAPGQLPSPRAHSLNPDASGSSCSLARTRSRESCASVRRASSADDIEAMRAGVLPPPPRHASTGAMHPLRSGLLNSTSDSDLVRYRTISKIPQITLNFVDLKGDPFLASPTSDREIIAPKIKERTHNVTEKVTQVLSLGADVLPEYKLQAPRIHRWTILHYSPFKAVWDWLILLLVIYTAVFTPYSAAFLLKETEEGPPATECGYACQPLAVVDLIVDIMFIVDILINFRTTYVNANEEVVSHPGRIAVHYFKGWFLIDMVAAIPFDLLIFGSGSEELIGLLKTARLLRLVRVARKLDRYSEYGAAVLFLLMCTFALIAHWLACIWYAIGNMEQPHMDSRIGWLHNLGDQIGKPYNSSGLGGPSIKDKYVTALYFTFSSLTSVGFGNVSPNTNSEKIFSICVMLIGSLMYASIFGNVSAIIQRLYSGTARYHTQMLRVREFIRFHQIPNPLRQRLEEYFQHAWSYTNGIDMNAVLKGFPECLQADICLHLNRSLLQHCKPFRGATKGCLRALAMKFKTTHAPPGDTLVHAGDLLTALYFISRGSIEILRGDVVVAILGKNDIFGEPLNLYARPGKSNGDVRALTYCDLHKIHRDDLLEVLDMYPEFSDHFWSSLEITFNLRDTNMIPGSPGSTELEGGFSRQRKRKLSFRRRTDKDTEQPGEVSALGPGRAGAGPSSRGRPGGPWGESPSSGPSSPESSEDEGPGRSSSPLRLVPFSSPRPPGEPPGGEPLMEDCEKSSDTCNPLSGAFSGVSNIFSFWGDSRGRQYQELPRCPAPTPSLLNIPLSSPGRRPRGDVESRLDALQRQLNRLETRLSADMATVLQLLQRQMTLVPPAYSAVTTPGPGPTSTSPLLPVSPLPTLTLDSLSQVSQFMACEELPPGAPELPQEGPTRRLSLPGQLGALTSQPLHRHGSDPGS", "experiment": "primary screen, population patch clamp on CHO cells stably expressing hERG", "units": {"hERG current change (%, negative = inhibition) at 10uM": "%"}}
{"molecule": "O=C(c1ccco1)N1CCN(C(=O)c2ccc(CS(=O)c3ccc(F)cc3)o2)CC1", "note": "(centres unmarked);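 also: peak tail current of the secondary pulse compared with the same well before compound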", "hERG current change (%, negative = inhibition) at 10uM": 11.8}
{"molecule": "COc1cc(NC(=O)c2cc(-c3cccnc3)nc3ccc(C)cc23)c(OC)cc1Cl", "hERG current change (%, negative = inhibition) at 10uM": 0.136}
{"molecule": "CC(C)(Oc1ccc(Cl)cc1)C(=O)NCc1ccco1", "hERG current change (%, negative = inhibition) at 10uM": 2.22}
{"molecule": "CCC(C)NC(=O)C1CCN(C(=O)N(C)C)CC1", "note": "(centres unmarked)", "hERG current change (%, negative = inhibition) at 10uM": 9.88}
{"molecule": "CCCSc1nnc(Sc2nnnn2-c2ccccc2)s1", "hERG current change (%, negative = inhibition) at 10uM": -16.7}
{"molecule": "CCCOC(=O)Nc1ccc(C(N)=O)cc1", "hERG current change (%, negative = inhibition) at 10uM": 1.57}
{"molecule": "COC(=O)CCCC(=O)N1CCCC(C(=O)c2ccccc2SC)C1", "note": "(centres unmarked)", "hERG current change (%, negative = inhibition) at 10uM": -8.08}
{"molecule": "Cc1nc(S(=O)(=O)NC2CCCCC2)c(C#N)c(C)c1Cl", "hERG current change (%, negative = inhibition) at 10uM": -18.1}
{"molecule": "CC(C)c1nnc(NC(=O)c2cnccn2)s1", "hERG current change (%, negative = inhibition) at 10uM": 16.2}
{"molecule": "N#Cc1cccnc1N1CCN(C(=O)c2ccccc2)CC1", "hERG current change (%, negative = inhibition) at 10uM": 19.5}
{"molecule": "CCC(C)NC(=O)CSc1nnc(-c2ccncc2)n1-c1ccc(OC)cc1", "note": "(centres unmarked)", "hERG current change (%, negative = inhibition) at 10uM": -0.947}
{"molecule": "CC(C)OC(=O)c1ccc(OC(=O)c2cccnc2)cc1", "hERG current change (%, negative = inhibition) at 10uM": 12.5}
{"molecule": "COc1ccc(/C=N/NC(=O)C[n+]2ccccc2)c(OC)c1OC.[Cl-]", "hERG current change (%, negative = inhibition) at 10uM": -0.0621}
{"molecule": "CCOC(=O)C1C(=O)NC(N2CCN(c3ccccc3)CC2)=NC1c1ccccc1", "note": "(centres unmarked)", "hERG current change (%, negative = inhibition) at 10uM": -6.12}
{"molecule": "N#Cc1sc2nc(C3CC3)cc(-c3ccc(Cl)cc3)c2c1N", "hERG current change (%, negative = inhibition) at 10uM": 6.54}
{"molecule": "CC(C)(C)OC(=O)C(Cc1ccc(OC(C)(C)C)cc1)NC(=O)CNC(=O)OCc1ccccc1", "note": "(stereo not drawn) (Cbz-Gly-[ξY](tBu)-OtBu)", "hERG current change (%, negative = inhibition) at 10uM": -34}
{"molecule": "Cc1cccc(N2C(S)=C(C#N)C(=O)NC23CCCCC3)c1", "hERG current change (%, negative = inhibition) at 10uM": -7.13}
{"molecule": "O=c1[nH]ncn1-c1cccc(C(F)(F)F)c1", "hERG current change (%, negative = inhibition) at 10uM": 10.8}
{"molecule": "O=C(NC(=S)NCCc1ccccc1)c1ccccc1", "hERG current change (%, negative = inhibition) at 10uM": 4.4}
{"molecule": "N#CC1=C(N)OC2=C(C(=O)CCC2)C1c1ccccc1", "note": "(centres unmarked)", "hERG current change (%, negative = inhibition) at 10uM": -11.9}
{"molecule": "COc1ccccc1NS(=O)(=O)c1cc(C(=O)N2CCCC2)ccc1C", "hERG current change (%, negative = inhibition) at 10uM": -9.55}
{"molecule": "Cc1nc2ccccc2n1CC(O)Cn1c2ccccc2c2ccccc21", "note": "(centres unmarked)", "hERG current change (%, negative = inhibition) at 10uM": -9.05}
{"molecule": "CC(C)(C)C(=O)N(Cc1ccc(Cl)cc1)Cc1cccnc1", "hERG current change (%, negative = inhibition) at 10uM": -17.3}
{"molecule": "O=C(O)[C@H](Cc1ccccc1)NC(=O)N1CCCCCC1", "hERG current change (%, negative = inhibition) at 10uM": 10.8}
{"molecule": "Cc1cccc(Nc2ncc3c(n2)CC(c2ccco2)CC3=O)c1", "note": "(centres unmarked)", "hERG current change (%, negative = inhibition) at 10uM": 1.2}
{"molecule": "CC(C)(C)n1nc2c(c1NC(=O)c1ccc(Cl)c([N+](=O)[O-])c1)CS(=O)(=O)C2", "hERG current change (%, negative = inhibition) at 10uM": -6.16}
